In all, about 310,000 compounds went through this assay and about 2,200 (0.71%) showed an effect of 50% or more. Effects have a minus sign here. The list shows a part of the results.
biological target: human ether-à-go-go-related gene (hERG) potassium channel (human, UniProt Q12809); test: primary screen, population patch clamp on CHO cells stably expressing hERG
Sequence (Q12809 whole entry, looked up): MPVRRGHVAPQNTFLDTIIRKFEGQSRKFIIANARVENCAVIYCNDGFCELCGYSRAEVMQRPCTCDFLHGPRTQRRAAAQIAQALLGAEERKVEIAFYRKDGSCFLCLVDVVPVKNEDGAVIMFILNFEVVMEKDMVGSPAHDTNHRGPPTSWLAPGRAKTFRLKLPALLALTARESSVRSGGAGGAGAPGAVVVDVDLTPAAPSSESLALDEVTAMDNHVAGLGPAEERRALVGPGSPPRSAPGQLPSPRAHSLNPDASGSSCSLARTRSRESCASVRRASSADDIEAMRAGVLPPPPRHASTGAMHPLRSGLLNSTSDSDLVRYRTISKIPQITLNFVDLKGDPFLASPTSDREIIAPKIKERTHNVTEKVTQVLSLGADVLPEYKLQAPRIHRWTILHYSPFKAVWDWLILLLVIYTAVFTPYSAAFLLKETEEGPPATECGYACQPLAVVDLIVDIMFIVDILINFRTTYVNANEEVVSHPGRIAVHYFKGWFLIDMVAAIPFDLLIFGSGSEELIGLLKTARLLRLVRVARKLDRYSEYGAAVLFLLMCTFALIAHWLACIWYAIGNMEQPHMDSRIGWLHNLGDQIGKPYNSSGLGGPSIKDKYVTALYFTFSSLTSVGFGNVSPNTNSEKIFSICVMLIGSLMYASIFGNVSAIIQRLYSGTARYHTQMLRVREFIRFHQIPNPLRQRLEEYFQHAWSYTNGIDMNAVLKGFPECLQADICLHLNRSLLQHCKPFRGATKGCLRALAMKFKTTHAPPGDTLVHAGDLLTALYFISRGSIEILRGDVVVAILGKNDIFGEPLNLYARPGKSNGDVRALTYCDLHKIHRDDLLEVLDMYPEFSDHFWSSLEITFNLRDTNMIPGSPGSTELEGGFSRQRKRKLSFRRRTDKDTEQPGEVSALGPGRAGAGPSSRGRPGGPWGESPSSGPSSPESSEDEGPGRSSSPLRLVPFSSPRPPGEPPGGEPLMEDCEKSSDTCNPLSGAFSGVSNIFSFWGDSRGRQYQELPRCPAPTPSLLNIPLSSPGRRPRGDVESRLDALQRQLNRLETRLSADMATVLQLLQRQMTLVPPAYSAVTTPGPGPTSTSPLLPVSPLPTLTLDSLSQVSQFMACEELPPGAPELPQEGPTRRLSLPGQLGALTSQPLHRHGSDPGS

| Compound | hERG current change (%, negative = inhibition) at 1uM |
| --- | --- |
| Cc1ccc(N/C=C/C(=O)c2ccccc2)cc1C | 14.4% |
| COc1ccc(S(=O)(=O)N2CCOCC2)cc1C(=O)N(C)CCOc1ccc(Cl)cc1 | -13.5% |
| CC1(C)CC(NCc2ccncc2)CC(C)(C)N1 | 19.1% |
| CCNS(=O)(=O)c1ccc(NC(=S)NCc2ccco2)cc1 | 3.99% |
| COc1ccc(N2CC(C(=O)Nc3ccc4c(c3)OCCO4)CC2=O)cc1 (stereo not shown) | 10% |
| Cc1ccc(-c2noc(CCC(=O)NCCN3CCc4ccccc4C3)n2)cc1 | 1.82% |
| O=C1NC(=O)N(C2CCCCC2)C(=O)C1C1c2ccccc2C(=O)N1Cc1ccccc1 (stereo not shown) | 2.17% |
| CN(CC(=O)O/N=C(\N)c1ccc([N+](=O)[O-])cc1)S(=O)(=O)c1ccc2ccccc2c1 | -7.16% |
| CCNC(=O)/C(C#N)=C/c1c(N2CCN(C)CC2)nc2c(C)cccn2c1=O | 13.9% |
| CCn1c2ccccc2c2cc([N+](=O)[O-])ccc21 | 12.1% |
| CCn1cc(C(=O)NC2CCCCC2)c(=O)c2cc(S(=O)(=O)N(C)C)ccc21 | 2.85% |
| CC(=O)c1cccc(NC(=O)Cn2cnc(S(=O)(=O)N3CCOCC3)c2)c1 | 13% |
| CCOC(=O)C1CCN(C(=O)Nc2ccc3nccnc3c2)CC1 | -6.7% |
| COC(=O)NC(=C(Cl)Cl)S(=O)(=O)c1ccccc1 | 12.2% |
| Nc1nnc(SCC(=O)N2CCN(c3cccc(Cl)c3)CC2)n1-c1ccccc1 | 3.04% |
| COc1ccccc1-c1cc(C(F)(F)F)nc(N2CCN(c3ccccc3)CC2)n1 | 2.09% |
| COc1cccc(OCC(=O)N2CCCc3ccccc32)c1 | 8.12% |
| Cc1nc(N2CCC(C)CC2)c2oc3ccccc3c2n1 | 16.3% |
| COc1ccc(C)cc1C(=O)CCC(=O)NCCc1ccc(S(N)(=O)=O)cc1 | 9.61% |
| COc1ccc(NC(=O)C/C(C)=N/NC(=O)c2cccs2)c([N+](=O)[O-])c1 | -21.8% |
| COc1cc(O)c(/C=N/NC(=O)c2ccncc2)c(OC)c1[N+](=O)[O-] | 1.14% |
| COc1ccc(S(=O)(=O)Nc2ccc(N3CCOCC3)cc2)cc1Br | 6.56% |

| Compound | hERG current change (%, negative = inhibition) at 1uM |
| --- | --- |
| Nc1nc(-c2ccc(Cl)cc2)c(S(=O)(=O)c2ccccc2)s1 | 11.4% |
| NC(=O)c1cccn(Cc2ccc(C(F)(F)F)cc2)c1=O | 13.9% |
| Cc1ccc(-c2cc(C(=O)NC3=NCCS3)c3ccccc3n2)cc1C | 21.4% |
| CCCCC(CC)C1OCC(C[N+]2(C)CCOCC2)O1 (stereo not shown) | 7.73% |
| Cc1onc(-c2c(F)cccc2Cl)c1C(=O)Nc1c(C)n(C)n(-c2ccccc2)c1=O | 1.11% |
| COCCNC(=O)CCC1CCN(Cc2cccc(-c3ccc(C)o3)c2)CC1 | 11.2% |
| CS(=O)(=O)N(CC(=O)N1CCCC1)c1ccc(Cl)cc1 | 10.9% |
| CCOc1cccc(NC(=O)C2CC(=O)N(C)C(=Nc3cccc(F)c3)S2)c1 (stereo not shown) | 9.17% |
| CC(=O)Nc1ccc(NC(=O)COc2ccc([N+](=O)[O-])cc2)cc1 | 15.6% |
| CC(C)(C)c1ccc(C(=O)CCC(=O)OCC(=O)NCCc2ccc(S(N)(=O)=O)cc2)cc1 | 6.11% |
| CC1CCCC(C)N1/N=C/c1cc(Br)cc(Br)c1O (stereo not shown) | 8.54% |
| NC(=S)c1ncc(C(F)(F)F)cc1Cl | 6.93% |
| Cc1ccc(C2(CCNCc3ccco3)CCOC(C(C)C)C2)cc1 (stereo not shown) | -1.93% |
| CCOC(=O)c1nnn2c1nc(N1CCN(C)CC1)c1ccccc12 | 8.43% |
| COCCNC(=O)CN(CC1CCCO1)C(=O)CCC(=O)Nc1ccccn1 (stereo not shown) | -1.06% |
| CCOC(=O)CSc1nc2ccccc2c(=O)n1CC1CCCC1 | -63.8% |
| Nc1ccc(C(=O)c2ccccc2C(=O)O)cc1Cl | 1.35% |
| COC(=O)CCCC(=O)NCC1(N(C)Cc2ccccc2)Cc2ccccc2C1 | 9.35% |
| Clc1ccc(-c2nc3ccccn3c2CN2CCSCC2)cc1 | 12.4% |
| CC(C)(C)c1ccc(C(=O)NCCc2ccccc2)cc1 | 6.65% |
| O=C(/C=C/c1c(F)cccc1Cl)Nc1nn[nH]n1 | 17.6% |
| O=C(Cn1nnc(-c2ccc(F)cc2)n1)Nc1cccc(S(=O)(=O)N2CCCC2)c1 | -2.45% |

| Compound | hERG current change (%, negative = inhibition) at 1uM |
| --- | --- |
| COc1ccc(CN(C(=O)CSc2nnc(-c3ccccc3F)o2)c2ccc(F)cc2)cc1 | 4.95% |
| Cc1noc(NS(=O)(=O)c2ccc(NC(=O)CSc3nnc4c(n3)[nH]c3ccccc34)cc2)c1C | 13.2% |
| O=C1N=C(N2CCOCC2)S/C1=C\c1ccc(OS(=O)(=O)c2ccccc2)cc1 | -24% |
| CCn1ccnc1CN(C)C(=O)CCc1nnc(CCCc2ccccc2)o1 | 6.13% |
| O=C(NCCc1ccccc1)c1nc(-c2cccs2)no1 | 13.8% |
| O=C1COc2ccc(C(=O)COC(=O)c3cnc(Cl)c(Cl)c3)cc2N1 | 11.3% |
| COc1ccc(N=C2CC(C)(C)CC(=O)/C2=C(/O)c2ccccc2)cc1 | 4.8% |
| Fc1cccc(Cl)c1CSc1nnnn1-c1ccc2c(c1)OCO2 | 6.42% |
| S=C(Nc1ccc(Cl)cc1)N1CCCC1 | 16.4% |
| CCN(CC)c1ccc(S(=O)(=O)N2CCOCC2)cc1NC(=O)COC(=O)/C=C/c1ccc(C)o1 | -18.1% |
| Cc1ccc2[nH]c(C(=O)N3CCC(C(N)=O)CC3)cc2c1 | 14.6% |
| O=C(NCc1ccc(OC(F)(F)F)cc1)C1CC(c2ccccc2[N+](=O)[O-])=NO1 (stereo not shown) | -28.1% |
| O=C(NN1C(=O)/C(=C/c2ccc(O)cc2)SC1=S)c1ccccc1O | 13.9% |
| CC(C)CCN1CC(C(=O)NCc2ccccc2)CC1=O (stereo not shown) | 2.42% |
| O=C(Nc1cccc(O)c1)c1cccc(S(=O)(=O)N2CCCC2)c1 | -1.06% |
| COc1ccc(NC(=O)CSc2ncnc3sc(C)cc23)cc1 | 9.69% |
| O=S(=O)(O)c1nnc2sc3ccccc3n12 | 20.2% |
| COc1ccccc1NC(=O)COC(=O)CCn1c(C)csc1=O | 11.9% |
| O=C(CSCc1ccccc1)N/N=C/c1cc2c(cc1Br)OCO2 | 8.61% |
| COc1c(C)cccc1C(=O)Nc1cc(Cl)ccc1N1CCOCC1 | 10.6% |
| Cc1nc(NC(=O)/C=C/c2ccccc2)sc1C(=O)Nc1cccc(Cl)c1 | 13.3% |
| Nn1c(SCC(=O)Nc2ccc(N3CCOCC3)cc2)nnc1-c1cccc(F)c1 | 9.34% |

| Compound | hERG current change (%, negative = inhibition) at 1uM |
| --- | --- |
| CCC(=O)c1ccccc1OCCN1CCN(CC)CC1.O=C(O)C(=O)O | -2.43% |
| CCC(=O)N1CCN(c2ccc(NC(=O)c3ccc4c(c3)OCCO4)cc2)CC1 | 5.94% |
| O=C1NC(=O)N(Cc2ccc(F)cc2)C(=O)/C1=C\C=C\c1ccco1 | 3.89% |
| Oc1ccc(N=Nc2cccc(C(F)(F)F)c2)cc1C=Nc1ccc(N2CCOCC2)cc1 | 10% |
| O=C(NC1=NCCS1)c1ccc(C(F)(F)F)cc1 | -4.94% |
| CC(C)C1OC2(C)OC(=N)C1(C#N)C(C#N)(C#N)C2c1ccccc1 (stereo not shown) | 0.121% |
| CCCn1c(N2CCC(Cc3ccccc3)CC2)nc2c1c(=O)[nH]c(=O)n2C | 2.58% |
| CCc1nnc(NS(=O)(=O)c2ccc(NC(=S)NC(=O)c3cccnc3)cc2)s1 | 6.64% |
| Cc1ccc(CNC(=O)CSc2n[nH]c(N)n2)cc1 | 14.3% |
| Cc1ccc(Oc2ccc(S(=O)(=O)N3CCOCC3)cc2C(N)=O)cc1C | 1.14% |
| CC12CCC(C(=O)Nc3ccccc3N3CCOCC3)(CC1=O)C2(C)C (stereo not shown) | 12.7% |
| Cc1ccccc1-c1cn(-c2ccccc2)c(=S)[nH]1 | 13.9% |
| O=C(CCSc1ccc(Cl)cc1)NN=C1CCCCCC1 | 6.42% |
| O=C(/C=C/c1cccc([N+](=O)[O-])c1)NCCSCc1ccccc1Cl | 4.37% |
| O=C(CNc1ccccc1)N/N=C/c1c[nH]c2ccccc12 | -14.6% |
| Cc1ccccc1Cn1cc(S(=O)(=O)c2ccc(C(C)C)cc2)c(=O)c2cc3c(cc21)OCO3 | 10.2% |
| COc1ccc(NC(=O)Nc2cc3oc4ccccc4c3cc2OC)cc1 | 3.28% |
| CN(C)c1nnnn1-c1ccccc1Oc1ncc(C(F)(F)F)cc1Cl | 14.5% |
| CN(C(=O)N1CCN(S(=O)(=O)c2ccccc2)CC1)c1ccccc1 | 4.09% |
| Cc1c(NC(=S)Nc2ccc(Cl)cc2)c(=O)n(-c2ccccc2)n1C | 0.0846% |
| COc1ccc(C(=O)NC(=S)Nc2cccnc2)cc1OC | 8.4% |
| O=c1[nH]cnc(O)c1C(c1ccc([N+](=O)[O-])cc1)c1c(O)nc[nH]c1=O | 13% |
